This is one part of the list. The list includes weakly bound sequences.

This assay deals with T1, MBP-FoxP3dN (UniProt Q99JB6).
T1 sequence: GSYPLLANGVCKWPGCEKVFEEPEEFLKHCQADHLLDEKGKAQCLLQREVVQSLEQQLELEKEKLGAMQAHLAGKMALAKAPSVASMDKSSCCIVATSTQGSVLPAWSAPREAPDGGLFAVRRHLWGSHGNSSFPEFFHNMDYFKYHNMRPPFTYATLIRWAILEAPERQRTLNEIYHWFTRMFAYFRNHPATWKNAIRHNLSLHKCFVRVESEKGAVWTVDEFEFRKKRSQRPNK
Nature of the assay: PD-seq (MBP pull-down with sequencing). The settings on record: 20 mM Tris-HCl pH 7.5, 100 mM NaCl, 1.5 mM MgCl2, 0.4 uM protein, 0.1 uM dsDNA library, 30 min, room temperature, amylose pull-down; high values mean tight binding; double strand, one strand shown.
As for “GATGATTGTTCTCCCAGCTGATGAATTTTGGCGGTCGAGTAAACAAATTTTCCTAATCTTTCTGTTCAAGCGCCATCTAC”, the binding signal (RPM ratio (pull-down/input)) worked out at 0.365.
As for “GATGATTGTTCTCCCAGCTGATGAATTTACTAGATCGAGTAAACAAATTTTCCTAATCTTTCTGTTCAAGCGCCATCTAC”, the binding signal (RPM ratio (pull-down/input)) turned out to be 0.323.
Take “GATGATTGTTCTCCCAGCTGATGAATTTCTAGCGTCGAGTAAACAAATTTTCCTAATCTTTCTGTTCAAGCGCCATCTAC”: the binding signal (RPM ratio (pull-down/input)) is 0.435.
In the case of “GATGATTGTTCTCCCAGCTGATGAATTCACTCGCTCGAGTAAACAAATTTTCCTAATCTTTCTGTTCAAGCGCCATCTAC”, the binding signal (RPM ratio (pull-down/input)) was 0.262.
“GATGATTGTTCTCCCAGCTGATGAATTGGTATCCTCGAGTAAACAAATTTTCCTAATCTTTCTGTTCAAGCGCCATCTAC”: the binding signal (RPM ratio (pull-down/input)) stood at 1.31.
With “GATGATTGTTCTCCCAGCTGATGAATTGGGGGGGTCGAGTAAACAAATTTTCCTAATCTTTCTGTTCAAGCGCCATCTAC” the figure was 0.83; with “GATGATTGTTCTCCCAGCTGATGAATTGCAGAGATCGAGTAAACAAATTTTCCTAATCTTTCTGTTCAAGCGCCATCTAC”, 0.478.
Take “GATGATTGTTCTCCCAGCTGATGAATTTAGTCGGTCGAGTAAACAAATTTTCCTAATCTTTCTGTTCAAGCGCCATCTAC”: the binding signal (RPM ratio (pull-down/input)) amounted to 0.307.
With “GATGATTGTTCTCCCAGCTGATGAATTCCAGTACTCGAGTAAACAAATTTTCCTAATCTTTCTGTTCAAGCGCCATCTAC”, the binding signal (RPM ratio (pull-down/input)) stood at 0.393.
With “GATGATTGTTCTCCCAGCTGATGAATTCGCCATATCGAGTAAACAAATTTTCCTAATCTTTCTGTTCAAGCGCCATCTAC” the figure was 0.952.
Consider “GATGATTGTTCTCCCAGCTGATGAATTAAAAAAATCGAGTAAACAAATTTTCCTAATCTTTCTGTTCAAGCGCCATCTAC”, for which the binding signal (RPM ratio (pull-down/input)) was found to be 0.138.
With “GATGATTGTTCTCCCAGCTGATGAATTACCGACATCGAGTAAACAAATTTTCCTAATCTTTCTGTTCAAGCGCCATCTAC”, the binding signal (RPM ratio (pull-down/input)) was 0.532.
For “GATGATTGTTCTCCCAGCTGATGAATTGAAGCAATCGAGTAAACAAATTTTCCTAATCTTTCTGTTCAAGCGCCATCTAC”, the binding signal (RPM ratio (pull-down/input)) was found to be 1.71.
With “GATGATTGTTCTCCCAGCTGATGAATTCCTCATTTCGAGTAAACAAATTTTCCTAATCTTTCTGTTCAAGCGCCATCTAC”, the binding signal (RPM ratio (pull-down/input)) was 0.318.
“GATGATTGTTCTCCCAGCTGATGAATTAGAGCCGTCGAGTAAACAAATTTTCCTAATCTTTCTGTTCAAGCGCCATCTAC”: the binding signal (RPM ratio (pull-down/input)) stood at 0.382.
Next, “GATGATTGTTCTCCCAGCTGATGAATTTTCCTCTTCGAGTAAACAAATTTTCCTAATCTTTCTGTTCAAGCGCCATCTAC”: 0.203; “GATGATTGTTCTCCCAGCTGATGAATTGTATCCCTCGAGTAAACAAATTTTCCTAATCTTTCTGTTCAAGCGCCATCTAC”: 1.36; “GATGATTGTTCTCCCAGCTGATGAATTTTTGCTGTCGAGTAAACAAATTTTCCTAATCTTTCTGTTCAAGCGCCATCTAC”: 0.548.
With “GATGATTGTTCTCCCAGCTGATGAATTTTCACATTCGAGTAAACAAATTTTCCTAATCTTTCTGTTCAAGCGCCATCTAC” the figure was 0.371; with “GATGATTGTTCTCCCAGCTGATGAATTTCCTCTCTCGAGTAAACAAATTTTCCTAATCTTTCTGTTCAAGCGCCATCTAC”, 0.291; with “GATGATTGTTCTCCCAGCTGATGAATTTGCTAGTTCGAGTAAACAAATTTTCCTAATCTTTCTGTTCAAGCGCCATCTAC”, 4.85.
With “GATGATTGTTCTCCCAGCTGATGAATTAGTTTGGTCGAGTAAACAAATTTTCCTAATCTTTCTGTTCAAGCGCCATCTAC” the figure was 5.41; with “GATGATTGTTCTCCCAGCTGATGAATTCTCAAGATCGAGTAAACAAATTTTCCTAATCTTTCTGTTCAAGCGCCATCTAC”, 0.209; with “GATGATTGTTCTCCCAGCTGATGAATTTTCCACCTCGAGTAAACAAATTTTCCTAATCTTTCTGTTCAAGCGCCATCTAC”, 0.229.
Take “GATGATTGTTCTCCCAGCTGATGAATTCCATCTCTCGAGTAAACAAATTTTCCTAATCTTTCTGTTCAAGCGCCATCTAC”: the binding signal (RPM ratio (pull-down/input)) came out at 0.534.
Consider “GATGATTGTTCTCCCAGCTGATGAATTCCATATGTCGAGTAAACAAATTTTCCTAATCTTTCTGTTCAAGCGCCATCTAC”, for which the binding signal (RPM ratio (pull-down/input)) was determined as 0.655.
With “GATGATTGTTCTCCCAGCTGATGAATTATAAAGATCGAGTAAACAAATTTTCCTAATCTTTCTGTTCAAGCGCCATCTAC”, the binding signal (RPM ratio (pull-down/input)) is 0.233.
On to “GATGATTGTTCTCCCAGCTGATGAATTATCTCAGTCGAGTAAACAAATTTTCCTAATCTTTCTGTTCAAGCGCCATCTAC”, for which the binding signal (RPM ratio (pull-down/input)) was 0.275.
With “GATGATTGTTCTCCCAGCTGATGAATTCTCTTTTTCGAGTAAACAAATTTTCCTAATCTTTCTGTTCAAGCGCCATCTAC” the figure was 0.449.
With “GATGATTGTTCTCCCAGCTGATGAATTGCGCTGATCGAGTAAACAAATTTTCCTAATCTTTCTGTTCAAGCGCCATCTAC”, the binding signal (RPM ratio (pull-down/input)) turned out to be 0.898.
Next, “GATGATTGTTCTCCCAGCTGATGAATTCCACTGGTCGAGTAAACAAATTTTCCTAATCTTTCTGTTCAAGCGCCATCTAC”: 0.27.
Next, “GATGATTGTTCTCCCAGCTGATGAATTCCTTGGCTCGAGTAAACAAATTTTCCTAATCTTTCTGTTCAAGCGCCATCTAC”: 0.222; “GATGATTGTTCTCCCAGCTGATGAATTGTATCTCTCGAGTAAACAAATTTTCCTAATCTTTCTGTTCAAGCGCCATCTAC”: 1.51.
With “GATGATTGTTCTCCCAGCTGATGAATTCCAGCTATCGAGTAAACAAATTTTCCTAATCTTTCTGTTCAAGCGCCATCTAC” the figure was 0.58.
As to “GATGATTGTTCTCCCAGCTGATGAATTGAAATGCTCGAGTAAACAAATTTTCCTAATCTTTCTGTTCAAGCGCCATCTAC”, the binding signal (RPM ratio (pull-down/input)) came to 0.58.
Next, “GATGATTGTTCTCCCAGCTGATGAATTACTTGAATCGAGTAAACAAATTTTCCTAATCTTTCTGTTCAAGCGCCATCTAC”: 0.248; “GATGATTGTTCTCCCAGCTGATGAATTCCTCAATTCGAGTAAACAAATTTTCCTAATCTTTCTGTTCAAGCGCCATCTAC”: 0.274.
Next, “GATGATTGTTCTCCCAGCTGATGAATTCTTATAATCGAGTAAACAAATTTTCCTAATCTTTCTGTTCAAGCGCCATCTAC”: 0.359; “GATGATTGTTCTCCCAGCTGATGAATTCACTTTGTCGAGTAAACAAATTTTCCTAATCTTTCTGTTCAAGCGCCATCTAC”: 0.686; “GATGATTGTTCTCCCAGCTGATGAATTTTTACACTCGAGTAAACAAATTTTCCTAATCTTTCTGTTCAAGCGCCATCTAC”: 0.334.

These data come from publication PMC12820563.
